Substitutions are numbered along the chain they refer to. Results are given in words; binding and its absence hold for the method and conditions named. Binding seen in cells or lysates may run through a third protein. Some binding calls cover weakened binding; strength is not graded here.
Experiments:
[1] = biological target: T1, BDA1* HMHA2* ST-CDAN1 (human) (UniProt Q8IWY9); experiment: pull-down; Strep-Tactin pulldown of transiently transfected ST-CDAN1 variants from Flp-In 293 T-REx lysates; endogenous ASF1A, ASF1B and CDIN1 detected by immunoblotting; IP buffer with 1% Triton X-100, 1 hr at 4 °C
T1 sequence: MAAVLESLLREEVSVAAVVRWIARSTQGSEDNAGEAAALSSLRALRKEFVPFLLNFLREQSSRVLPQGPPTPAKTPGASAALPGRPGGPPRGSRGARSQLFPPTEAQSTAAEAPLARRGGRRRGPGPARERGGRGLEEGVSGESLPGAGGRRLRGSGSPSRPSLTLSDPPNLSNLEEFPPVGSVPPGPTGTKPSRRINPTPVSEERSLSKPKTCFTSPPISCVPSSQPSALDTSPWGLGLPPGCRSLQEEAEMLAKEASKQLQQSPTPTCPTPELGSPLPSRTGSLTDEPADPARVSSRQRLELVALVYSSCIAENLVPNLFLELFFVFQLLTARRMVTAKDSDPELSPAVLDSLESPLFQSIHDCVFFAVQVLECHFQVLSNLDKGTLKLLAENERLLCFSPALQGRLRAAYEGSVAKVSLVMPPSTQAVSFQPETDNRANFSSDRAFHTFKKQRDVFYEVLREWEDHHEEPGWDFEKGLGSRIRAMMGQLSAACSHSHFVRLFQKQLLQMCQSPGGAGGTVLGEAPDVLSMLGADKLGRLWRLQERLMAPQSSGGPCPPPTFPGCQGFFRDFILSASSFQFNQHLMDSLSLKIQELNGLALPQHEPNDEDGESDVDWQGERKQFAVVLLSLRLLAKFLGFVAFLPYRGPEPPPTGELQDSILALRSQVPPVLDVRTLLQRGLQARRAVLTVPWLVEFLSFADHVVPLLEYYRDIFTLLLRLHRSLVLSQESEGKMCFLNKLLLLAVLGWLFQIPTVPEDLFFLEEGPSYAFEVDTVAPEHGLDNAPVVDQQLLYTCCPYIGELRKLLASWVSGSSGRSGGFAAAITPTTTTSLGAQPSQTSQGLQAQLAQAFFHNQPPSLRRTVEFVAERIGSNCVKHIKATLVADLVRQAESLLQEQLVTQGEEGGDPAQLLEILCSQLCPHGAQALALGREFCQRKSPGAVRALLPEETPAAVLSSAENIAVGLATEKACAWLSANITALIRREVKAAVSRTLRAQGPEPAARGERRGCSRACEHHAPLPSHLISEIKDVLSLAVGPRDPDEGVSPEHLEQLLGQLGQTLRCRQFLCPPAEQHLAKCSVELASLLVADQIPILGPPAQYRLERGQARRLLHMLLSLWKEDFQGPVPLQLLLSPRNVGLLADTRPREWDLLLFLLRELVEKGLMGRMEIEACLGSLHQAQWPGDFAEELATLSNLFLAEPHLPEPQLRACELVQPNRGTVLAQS

[2] = biological target: T2, Strep-CDAN1 HMHA1* BDA1* HMHA2* BDA2* (all four binding elements mutated) (human) (UniProt Q8IWY9); experiment: as above
T2 sequence: T1 sequence with S194A, R195A, R196A, R541A, R544A, R548A

binding [1]: binds
binding [2]: binds
B1: FLAG-tagged CDIN1 (F-CDIN1) (natural protein, UniProt Q9Y2V0 1-281, looked up)
chain: MILTKAQYDEIAQCLVSVPPTRQSLRKLKQRFPSQSQATLLSIFSQEYQKHIKRTHAKHHTSEAIESYYQRYLNGVVKNGAAPVLLDLANEVDYAPSLMARLILERFLQEHEETPPSKSIINSMLRDPSQIPDGVLANQVYQCIVNDCCYGPLVDCIKHAIGHEHEVLLRDLLLEKNLSFLDEDQLRAKGYDKTPDFILQVPVAVEGHIIHWIESKASFGDECSHHAYLHDQFWSYWNRFGPGLVIYWYGFIQELDCNRERGILLKACFPTNIVTLCHSIA
notes: C15orf41); cDNA synthesized by IDT; source: Expi293, transiently transfected, in lysate and purified in complexes (anti-FLAG, Strep-Tactin); not shown: 3xFLAG, N-terminal, kept

Source: PMC11911400, “Mechanism of ASF1 engagement by CDAN1” (Nature Communications, 2025)
